# From the supplement of paper PMC8728848
# The list shows a part of the results.
# B1: Siglec-H (Mus musculus), Q4QQK7 (protein)
# chain: MLLSRLLPLLWVLKWASGNCFILPREVIGTYPSLTLELQSVTVQEGLCVLVPCHLIEYPMNRWSDAAFGYWFHEGENTHPDSLVATNKPYQLVQKEMQSRFHFSGDCSLDIRDAQKGDNGSYFFRLEKGGKTWNFCEERISVHVTDLTHSPNISIPQTLELGRPTNVMCSVPWACERGTPPIFSWMSAALISLGPTTTLSSVLTLTPRLQDHGTNLTCQVTFPGAGVTVQKTIQLNVTYNSQNSTAHVSGRVGPGKPRPLADVVQVAMGEAAIKFLLLGICFFFLSKRSHTKRVERPATHMDQAHAVMD
# Columns and labels:
# Test in all cases: glycan array binding signal (z-score within array); higher = stronger binding
# Conditions in all cases: glycan notation: IUPAC condensed, linker removed
# [1] = molecular target: Gal(b1-3)[Fuc(a1-4)]GlcNAc(b1-3)Gal(b1-4)[Fuc(a1-3)]GlcNAc
# Method in brief: (§1)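 The Consortium for Functional Glycomics database supplied 3228 glycan arrays, of which those lacking an available protein sequence were dropped. The binding signal, a within-array Z-score, was averaged across arrays of the same protein sequence and across linkers. Negative scores can be read as non-binding.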
# [2] = molecular target: Gal(b1-3)[GlcNAc(b1-6)]GalNAc
# Method in brief: as §1
# [3] = molecular target: Gal(b1-3)[Neu5Ac(a2-6)]GalNAc
# Method in brief: as §1
# [4] = molecular target: Gal(b1-3)[Neu5Ac(a2-6)]GlcNAc(b1-6)Gal(b1-4)Glc
# Method in brief: as §1
# [5] = molecular target: Gal(b1-3)[Neu5Ac(b2-6)]GalNAc
# Method in brief: as §1
# [6] = molecular target: Gal(b1-4)GalNAc(a1-3)[Fuc(a1-2)]Gal(b1-4)GlcNAc
# Method in brief: as §1
# [7] = molecular target: Gal(b1-4)GalNAc(b1-3)[Fuc(a1-2)]Gal(b1-4)GlcNAc
# Method in brief: as §1
# Gal(b1-4)Glc = molecular target: Gal(b1-4)Glc
# Method in brief: as §1
# Gal(b1-4)Glc6S = molecular target: Gal(b1-4)Glc6S
# Method in brief: as §1
# Gal(b1-4)GlcNAc = molecular target: Gal(b1-4)GlcNAc
# Method in brief: as §1
# [8] = molecular target: Gal(b1-4)GlcNAc(b1-2)Man(a1-3)[Gal(b1-4)GlcNAc(b1-2)Man(a1-6)]Man(b1-4)GlcNAc(b1-4)GlcNAc
# Method in brief: as §1
# [9] = molecular target: Gal(b1-4)GlcNAc(b1-3)Gal(b1-4)Glc
# Method in brief: as §1
# [10] = molecular target: Gal(b1-4)GlcNAc(b1-3)Gal(b1-4)GlcNAc
# Method in brief: as §1
# [11] = molecular target: Gal(b1-4)GlcNAc(b1-3)Gal(b1-4)GlcNAc(b1-3)Gal(b1-4)GlcNAc
# Method in brief: as §1
# [12] = molecular target: Gal(b1-4)GlcNAc(b1-3)Gal(b1-4)[Fuc(a1-3)]GlcNAc(b1-3)Gal(b1-4)[Fuc(a1-3)]GlcNAc
# Method in brief: as §1
# [13] = molecular target: Gal(b1-4)GlcNAc(b1-3)GalNAc
# Method in brief: as §1
# [14] = molecular target: Gal(b1-4)GlcNAc(b1-3)[Gal(b1-4)GlcNAc(b1-6)]GalNAc
# Method in brief: as §1
# [15] = molecular target: Gal(b1-4)GlcNAc(b1-6)Gal(b1-4)GlcNAc(b1-6)GalNAc
# Method in brief: as §1
# [16] = molecular target: Gal(b1-4)GlcNAc(b1-6)GalNAc
# Method in brief: as §1
# [17] = molecular target: Gal(b1-4)GlcNAc(b1-6)[Gal(b1-3)]GalNAc
# Method in brief: as §1
# Gal3S(b1-3)GalNAc = molecular target: Gal3S(b1-3)GalNAc
# Method in brief: as §1
# Gal3S(b1-3)GlcNAc = molecular target: Gal3S(b1-3)GlcNAc
# Method in brief: as §1
# [18] = molecular target: Gal3S(b1-3)[Fuc(a1-4)]GlcNAc
# Method in brief: as §1
# Gal3S(b1-4)Glc = molecular target: Gal3S(b1-4)Glc
# Method in brief: as §1
# Gal3S(b1-4)Glc6S = molecular target: Gal3S(b1-4)Glc6S
# Method in brief: as §1
# Gal3S(b1-4)GlcNAc = molecular target: Gal3S(b1-4)GlcNAc
# Method in brief: as §1
# Gal3S(b1-4)GlcNAc6S = molecular target: Gal3S(b1-4)GlcNAc6S
# Method in brief: as §1
# Gal3S6S(b1-4)GlcNAc = molecular target: Gal3S6S(b1-4)GlcNAc
# Method in brief: as §1
# Gal3S6S(b1-4)GlcNAc6S = molecular target: Gal3S6S(b1-4)GlcNAc6S
# Method in brief: as §1
# Gal4S(b1-4)GlcNAc = molecular target: Gal4S(b1-4)GlcNAc
# Method in brief: as §1
binder,measurement,setting,value
B1,glycan array binding signal (z-score),[1],-0.357
same,glycan array binding signal (z-score),[2],0.675
same,glycan array binding signal (z-score),[3],0.031
same,glycan array binding signal (z-score),[4],-0.279
same,glycan array binding signal (z-score),[5],-0.168
same,glycan array binding signal (z-score),[6],-0.311
same,glycan array binding signal (z-score),[7],-0.279
same,glycan array binding signal (z-score),Gal(b1-4)Glc,-0.141
same,glycan array binding signal (z-score),Gal(b1-4)Glc6S,-0.241
same,glycan array binding signal (z-score),Gal(b1-4)GlcNAc,-0.284
same,glycan array binding signal (z-score),[8],-0.385
same,glycan array binding signal (z-score),[9],-0.191
same,glycan array binding signal (z-score),[10],-0.348
same,glycan array binding signal (z-score),[11],-0.318
same,glycan array binding signal (z-score),[12],-0.258
same,glycan array binding signal (z-score),[13],-0.27
same,glycan array binding signal (z-score),[14],6.24
same,glycan array binding signal (z-score),[15],-0.354
same,glycan array binding signal (z-score),[16],-0.41
same,glycan array binding signal (z-score),[17],-0.305
same,glycan array binding signal (z-score),Gal3S(b1-3)GalNAc,-0.302
same,glycan array binding signal (z-score),Gal3S(b1-3)GlcNAc,-0.341
same,glycan array binding signal (z-score),[18],-0.086
same,glycan array binding signal (z-score),Gal3S(b1-4)Glc,-0.253
same,glycan array binding signal (z-score),Gal3S(b1-4)Glc6S,0.231
same,glycan array binding signal (z-score),Gal3S(b1-4)GlcNAc,-0.359
same,glycan array binding signal (z-score),Gal3S(b1-4)GlcNAc6S,-0.224
same,glycan array binding signal (z-score),Gal3S6S(b1-4)GlcNAc,-0.281
same,glycan array binding signal (z-score),Gal3S6S(b1-4)GlcNAc6S,-0.256
same,glycan array binding signal (z-score),Gal4S(b1-4)GlcNAc,-0.299
